# From the RNAGym collection of RNA variant scans (doi:10.7554/elife.90254)
# Read counts are not given, so values of variants with three or more changes are uncertain.
# B1: LINE1-mini (parent)
# chain: GGCAGAGCUCAACACAGCGUGGCAAAGUGGCUGUGGCUAGACUGCC
# Variants of: B1
# Assay: self-cleavage, relative activity (ratio to wild type); higher = more cleavage; in vitro, sequencing; the parent is a self-cleaving ribozyme
row,Variant,self-cleavage
1,U20C G22U G33A,0.44
2,G1U G2U U34A,0.01
3,G1U A4U G29U,0.24
4,A4U C8G G22A C46G,0.06
5,C3G A25G C46U,0.11
6,C8U C15U G21A U38C G44U,0.57
7,G1U C13U A24C A26C,0.02
8,U9C A16U C18A G22C A39U,0
9,G5A A14U C31A U32C G35U,0.05
10,G17C G19U C23G,0.2
11,C8A A14C C37U G44U C45U,0
12,A11C C13U G17U A25C U28A C42U C45G,0
13,C23G G40U C46U,0.04
14,C31G A39C G40C C42G,0.01
15,G5A A12G C15G G29U,0.02
16,C8U C10G U28C G36U U43C,0.01
17,A16U G19C U43C,0.06
18,G5U C10U G22U,0.91
19,A11G G36A A39C,0.02
20,A16G U28C G29C G40U G44A,0.01
21,C3G U9C G33C,0.1
22,A4C C10U C18A A26C,0.07
23,G5A A6U A12U C23A G44U,0.07
24,A6G G22A A26C,0.01

row,Variant,self-cleavage
1,A11G A26G G35C,0.03
2,U20C C23G U38G,0.01
3,G30C C31A G36A G44C,0.11
4,C10A G33A G36C,0.03
5,G22A G33U G40C A41U,0.12
6,U20C C31A U34C C42G,0.01
7,G2U G19U C23G,0.06
8,G1C A16G G17U U20A A39U,0.02
9,G2A C31U U38G C46A,0.08
10,C3U A25C A39G,0.01
11,G2A C3U C45U,0.47
12,C10U A14C G19C C31U,0.01
13,G5U C13A U32G,0.04
14,C8G C10G C46A,0.03
15,C15A G21A G22A C31A G36A,0.03
16,A6G G7U A11G G17C,0.01
17,A16G G30C U34A,0.03
18,G7U A16C G27C G30C G36U,0.1
19,C18A U20G C37U,0.02
20,C13A G22C C45A,0.08
21,A11C A12G G29U,0.06
22,U20G U34C G35U,0.24
23,A12U A24G A41C,0.04
24,C3U A4C G5A G29A A39C A41U,0.25

row,Variant,self-cleavage
1,C10U C31U G33U,0.01
2,U9A G21U U32G C45A,0.04
3,G17C C18G G21C C46A,0.05
4,C18U G19A C23A G33A G36U C37A U38G C46U,0
5,C3G A6G C23U G29C,0.01
6,G7A C18A G40A,0.01
7,C3A G7U G19C G30U G33C,0.12
8,A4G G17U C45A,0.06
9,A12C U32C C42U C46A,0.01
10,G7C A26C C37G,0
11,G29U G33U U38G,0.01
12,A4C G17U G27C G30A C31A,0.64
13,G5A C15U A26U,0.06
14,C10U U20C C37G,0.01
15,G5U C10A C15U G19A,0.03
16,A16G U20G G35U,0.02
17,A24G A26C C31A C45U,0.32
18,G2C C15A G19A,0.03
19,C10G G19U A24G,0.04
20,A14U U34A G35U,0.1
21,G1U A11G A14U A25C U28A,0.01
22,G1C C8A G29C U34A A39U,0
23,C8U G36C U43G C46A,0.08
24,G2U A24C U34G C37A,0

row,Variant,self-cleavage
1,G5C A26U U38C,0.05
2,C3A C8U A11G C46A,0.04
3,G27A C37U G44C,0.06
4,G1C A14G G33C C37A,0.01
5,A25U U38C G40A,0.04
6,C13G G22A G27A C31G U32G,0.04
7,U28G U38C A41C,0.02
8,C23U A25C U38A C46G,0.18
9,G1U A4C A26G,0.04
10,A16C G27A G40A,0.02
11,G7U A12U A41U,0.1
12,G19U U32G G33U,0.04
13,G2U G5U A6C C42A,0.02
14,A6G G19A G27U,0.09
15,A14G G27U U38G,0.01
16,C13A A16G G17A G19A,0.03
17,G2U C15A C23U A26U,0.03
18,G2A G36U C46A,0.16
19,G5U C13U G40U,0.05
20,G2C G30A A39G C45A,0.02
21,C8G C10G C23G G27A G30U G33U,0.01
22,C8U U34C C37A,0.05
23,U28G A39C G40A,0
24,G19A C23G A39C,0.15

row,Variant,self-cleavage
1,C15A U34G G44A,0.04
2,U20A A25C G29C U32C G36A C42U G44U,0.01
3,G30U C31A A41U,0.05
4,G1U G2U A11C A14C C37G,0
5,G1U A4U C10A C23G G36A,0.02
6,G27A G29U G36U,0.01
7,C18G A24U A26C U32A,0.01
8,G22C C23U U28A,2.9
9,G17U G29C G40A,0.08
10,G17C U20A G30A G44U,0.13
11,U20A C37U U38A A39U,0.02
12,A4G U9C C10A G21A C31A G36C C37A,0.01
13,A4U C15G G33U C45A,0.02
14,G1U G5U G21A G27U,0.08
15,G1C C23A U34A G44A C46U,0.05
16,G22A G27U G33U A39U,0.39
17,C8A C37A C45G,0.16
18,G5C G27C C42U C45U,0.17
19,G33U C42A C45G,0.24
20,A11G U32C G33A G40A G44A,0
21,A12G G27C U32A G33U G40U,0.03
22,C10A C13U C18G G27C,0.01
23,G1C A14G U20A A26U,0.01
24,G2C G7U G19U G22A G35A,0.11

row,Variant,self-cleavage
1,A4U A26U G27A,0.03
2,A6G C18G A25U C45U,0.06
3,C3G G22C C46U,0.2
4,G22U U43C G44U,0.09
5,G17C G22C A24C,0.29
6,G19C G29C G40U,0.13
7,C8G G22A C23G G33U A39U,0.03
8,G1A G2C C3A A6U G36U,0.55
9,C8U C10A A14U A16G A41G,0.02
10,U20C C23A C45A,0.1
11,C18U A26G C31U U32A C42U,0.06
12,U20C C23U C37U,0.02
13,G1U A26U U32G U38A C42G,0.05
14,A14G G27C C37G,0.04
15,G7A C10A A12C C46A,0.03
16,G1C A4G C18A G19A C23U U32C A39C,0.01
17,C18G G22A C45G C46U,0.1
18,A25G U38A G44C,0.15
19,G2C C18U G40C,0.03
20,C18G G19U G44A,0.07
21,C15U G17U G44U,0.05
22,G7C C8A G22U G40U,0.27
23,C10U C23U U28G A41G,0.02
24,C10A G19A G21U,0.09

row,Variant,self-cleavage
1,A24G G29A A41G C42U,0.06
2,C3A C10A U20G G22U,0.07
3,A4G G17U G21A G22U A26U G27U U32A G35U,0.05
4,G2U A4C G19U G30U G35C U43A,0.01
5,G5A A26G U32G A41G C46A,0.01
6,G5U U20A G21U G35U,0.06
7,A14U G30U G36C U38G C45A,0.03
8,G2C U9A C31G G36A,0.08
9,C15U G21C G33U,1.23
10,A6U G7C A16U C23G G44U C46A,0.21
11,C10A C15A A26G A39G G44C,0.02
12,C3A A14C A16G,0.28
13,G29C C37U C42A,0.02
14,A12C A25U C46A,0.03
15,G2A C23G G30A G33C,0.07
16,A12U G29A U38C,0.66
17,G22U C23U G40C,0.13
18,G29U G30U A39C C42A C45G,0.07
19,C3A A6C A26U U43A C45A,0.39
20,G1C A11U U32A U38G G44A,0
21,U9A U34G G40U,0.02
22,A6C C15A G19U G21C,0.09
23,G1U C8G U20C C23U A24C A25U G33C,0.04
